These results are taken from PMC4336329 (PLoS ONE, 2015).

About 2,200 (0.71%) of roughly 310,000 compounds showed an effect of 50% or more. Effects have a minus sign here. This is one part of the list.

Sequence of human ether-à-go-go-related gene (hERG) potassium channel (Q12809 whole entry, looked up): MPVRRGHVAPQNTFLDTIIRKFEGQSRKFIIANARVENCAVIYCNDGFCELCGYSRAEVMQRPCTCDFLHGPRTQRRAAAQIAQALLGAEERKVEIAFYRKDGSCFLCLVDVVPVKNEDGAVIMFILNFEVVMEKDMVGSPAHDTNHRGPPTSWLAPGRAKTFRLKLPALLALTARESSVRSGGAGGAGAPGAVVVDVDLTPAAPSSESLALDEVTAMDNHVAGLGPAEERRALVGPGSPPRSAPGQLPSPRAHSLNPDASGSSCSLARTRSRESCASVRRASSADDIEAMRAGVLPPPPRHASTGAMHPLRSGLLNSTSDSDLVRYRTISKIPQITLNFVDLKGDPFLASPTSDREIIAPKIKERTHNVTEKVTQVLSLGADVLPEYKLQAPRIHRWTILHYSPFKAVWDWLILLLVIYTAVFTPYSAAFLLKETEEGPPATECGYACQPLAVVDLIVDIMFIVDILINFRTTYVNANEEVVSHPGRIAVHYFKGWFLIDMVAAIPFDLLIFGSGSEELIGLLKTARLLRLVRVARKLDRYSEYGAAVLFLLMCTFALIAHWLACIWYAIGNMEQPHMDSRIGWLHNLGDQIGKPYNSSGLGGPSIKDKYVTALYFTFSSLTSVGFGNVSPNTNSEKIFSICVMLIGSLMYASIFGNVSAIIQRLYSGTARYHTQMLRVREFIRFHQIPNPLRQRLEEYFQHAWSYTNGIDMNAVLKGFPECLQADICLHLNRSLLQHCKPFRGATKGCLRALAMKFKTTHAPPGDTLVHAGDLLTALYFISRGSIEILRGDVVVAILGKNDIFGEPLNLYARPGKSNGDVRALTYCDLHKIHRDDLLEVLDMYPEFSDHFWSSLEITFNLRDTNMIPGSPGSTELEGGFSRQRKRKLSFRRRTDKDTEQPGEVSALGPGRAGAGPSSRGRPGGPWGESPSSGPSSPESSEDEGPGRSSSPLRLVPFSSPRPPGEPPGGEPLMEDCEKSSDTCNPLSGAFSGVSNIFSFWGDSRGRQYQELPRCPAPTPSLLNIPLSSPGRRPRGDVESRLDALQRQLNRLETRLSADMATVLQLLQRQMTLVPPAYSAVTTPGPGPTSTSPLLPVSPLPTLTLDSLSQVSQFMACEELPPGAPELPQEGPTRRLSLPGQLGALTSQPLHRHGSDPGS

This assay addresses human ether-à-go-go-related gene (hERG) potassium channel (human, UniProt Q12809). Briefly: primary screen, population patch clamp on CHO cells stably expressing hERG.
As to `CSCCC(NC(=O)c1ccc([N+](=O)[O-])cc1Cl)C(=O)OCC(=O)N1CCN(C(C)=O)CC1` (stereo not drawn), the “hERG current change (%, negative = inhibition) at 1uM” value is 4.68%.

In the case of `O=C(N/C(=C\c1ccco1)C(=O)N1CCCC1CO)c1ccccc1` (stereo not drawn), the “hERG current change (%, negative = inhibition) at 1uM” value is 10.6%. The result for `CC(C)(C)OC(=O)NCCCCCc1nnc(SCc2ccccc2F)o1` reads -2.15%. Next, `O=C(Nc1cccc(F)c1)c1cc(S(=O)(=O)NCCC2=CCCCC2)ccc1F`: 13%; `COc1ccccc1N1C(=O)c2ccc(C(=O)Nc3ccccc3O)cc2C1=O`: 13.5%; `CCN(CC(=O)N1CCc2ccccc2C1)S(=O)(=O)c1ccc2ccccc2c1`: -2.77%. Next, `COc1ccc(/C=N/NC(=O)c2cccnc2)cc1CN1CCc2cc(OC)c(OC)cc2C1C` (stereo not drawn): 1.82%. `O=C(Cc1ccccc1)c1ccc2c(c1)OCCO2`: the “hERG current change (%, negative = inhibition) at 1uM” value is 3.23%. For `COc1ccccc1S(=O)(=O)Cc1ccc(C(=O)NCCN(C)C)o1`, the “hERG current change (%, negative = inhibition) at 1uM” value stood at 10.6%.

As for `CN1C2CCC1CC(OC(=O)c1ccc(Cl)cc1)(C(=O)O)C2.Cl` (stereo not drawn), the “hERG current change (%, negative = inhibition) at 1uM” value was 2.55%. In the case of `COc1ccc(/C=N/NC(=O)c2cccc(C(=O)N/N=C/c3ccc(OC)cc3)n2)cc1`, the “hERG current change (%, negative = inhibition) at 1uM” value is 23.9%. The result for `O=C(Nc1ccc(F)c(F)c1)c1ccc(-n2cncn2)c([N+](=O)[O-])c1` reads 9.62%; that for `Nc1ccc(C(=O)O)cc1[N+](=O)[O-]`, 17.2%. `c1ccc2[nH]c(NCCCN3CCOCC3)nc2c1`: the “hERG current change (%, negative = inhibition) at 1uM” value was determined as 14.6%. `CNC(=O)C1CCN(C(=O)c2ccc(-c3ccccc3)cc2)CC1`: the “hERG current change (%, negative = inhibition) at 1uM” value was determined as 8.93%.

As for `COC(=O)c1ccccc1S(=O)c1snnc1C` (stereo not drawn), the “hERG current change (%, negative = inhibition) at 1uM” value came to 14.5%.

As for `NNC(=O)C12CC3CC(C1)CC(n1ncnn1)(C3)C2`, the “hERG current change (%, negative = inhibition) at 1uM” value is 7.93%.

Turning to `O=C(O)CCCC(=O)Nc1ccc(S(=O)(=O)Nc2nccs2)cc1`, the “hERG current change (%, negative = inhibition) at 1uM” value was 9.23%. Next, `Cc1[nH]c2ccccc2c1C(=O)COC(=O)c1cccc(S(=O)(=O)N2CCCCC2)c1`: 14.1%. The result for `Cc1ccc(NS(=O)(=O)c2c(C)[nH]c(=O)[nH]c2=O)cc1F` reads -8.76%; that for `COc1cnc(-c2ccccn2)nc1Oc1c(C)cccc1C`, 14.2%. For `O=[N+]([O-])c1cc2c(cc1/C=N/Nc1nc(N3CCCC3)nc(N3CCCC3)n1)OCO2`, the “hERG current change (%, negative = inhibition) at 1uM” value was -5.94%. On to `Cc1ccc(-c2nn3c(=O)c(C)nnc3s2)cc1`, for which the “hERG current change (%, negative = inhibition) at 1uM” value is given as 12.7%. In the case of `COc1ccc(/C(N)=N/OC(=O)CSc2ccc(C)cc2)cc1`, the “hERG current change (%, negative = inhibition) at 1uM” value stood at 13.1%. The result for `COCCNC(=O)C(c1ccc(C)o1)N(CCOC)C(=O)Cn1nnc2ccccc21` (stereo not drawn) reads 11.7%; that for `CCCCCC(=O)NNC1CC(=O)N(c2ccccc2)C1=O` (stereo not drawn), 11.7%. Next, `CCOc1ccc(C(=O)Nc2nc(C)c(C(=O)OC)s2)cc1`: 13.9%; `Cc1cccc(-n2c(-c3ccco3)nc3ccccc3c2=O)n1`: 18.6%. In the case of `COc1cccc(NC(=O)CSc2nn3c(=O)c(C)nnc3s2)c1`, the “hERG current change (%, negative = inhibition) at 1uM” value is on record as 11%. Regarding `Cc1c(Cl)cccc1NC(=S)N1CCN(C(=O)C2CCCO2)CC1` (stereo not drawn), the “hERG current change (%, negative = inhibition) at 1uM” value is 12%. With `COc1ccc(CNC(=O)[C@H](C)N2C(=O)N3CCc4c([nH]c5ccccc45)[C@@]3(C)C2=O)cc1OC`, the “hERG current change (%, negative = inhibition) at 1uM” value is -4.09%. The result for `Cc1sc2ncnc(SCC(=O)NC(=O)c3cccn3C)c2c1C` reads 10.4%; that for `COc1ccccc1NC(=S)NCc1cccnc1`, 9.53%. Consider `C#CCN(Cc1ccco1)C(=O)c1cc(COc2ccc(F)cc2Cl)on1`, for which the “hERG current change (%, negative = inhibition) at 1uM” value stood at 7.25%. As to `CCOC(=O)c1oc2ccccc2c1CSc1nnc(-c2ccco2)o1`, the “hERG current change (%, negative = inhibition) at 1uM” value is recorded as 14.6%. The result for `COC(=O)c1cccc(NC(=O)CCNC(=O)c2ccco2)c1` reads 14.7%. Next, `Cc1cccc(-n2c(SCc3cc(=O)n4c(C)cccc4n3)nc3[nH]ncc3c2=O)c1`: 3.04%; `Cc1cc(C)cc(NC(=O)CSc2ccccc2)c1`: 1.16%. The result for `Cc1cc(C)c(NC(=O)C2c3ccccc3Oc3ccccc32)c(C)c1` reads 9.4%; that for `O=C(Nc1nc2ccccc2n1CCN1CCCC1)C1CCCCC1`, -39.5%; that for `CCn1cc(-c2cc(C(=O)O)on2)c(C)n1`, 16.8%.

For `COc1cc(NC(=O)c2onc(C)c2Cl)c(OC)cc1Cl`, the “hERG current change (%, negative = inhibition) at 1uM” value is given as 5.83%. Turning to `COc1cccc([C@@H]2Oc3ccc(OC)cc3C(=O)[C@H]2OC(=O)NCc2ccc3c(c2)OCO3)c1`, the “hERG current change (%, negative = inhibition) at 1uM” value is given as -3.02%. The result for `COc1ccc(-c2ccc(-c3noc(C4CCCCC4)n3)c(OC)n2)cc1` reads 6.83%; that for `O=C(Nc1ccccc1)N1CCN(c2ccc(F)cc2)CC1`, 9.95%. In the case of `Cc1cccc(OCCC(=O)Nc2cc(S(=O)(=O)N3CCCCC3)ccc2N2CCOCC2)c1`, the “hERG current change (%, negative = inhibition) at 1uM” value came to 3.58%. In the case of `O=c1[nH]c(=O)n(-c2cccc3ccccc23)c(O)c1/C=N/N1CCCCC1`, the “hERG current change (%, negative = inhibition) at 1uM” value is 12.3%. Next, `CCc1cc2c(=O)c(-c3ccc4c(c3)OCCO4)coc2c(CN2CCCCC2C)c1O` (stereo not drawn): 17.2%. In the case of `CCCOc1ccc(CC(CC(=O)O)(C(=O)O)C(=O)O)cc1`, the “hERG current change (%, negative = inhibition) at 1uM” value is 2.75%. Regarding `O=[N+]([O-])c1ccc2c(c1Nc1ccccc1Cl)=NC1(CCCCC1)N=2`, the “hERG current change (%, negative = inhibition) at 1uM” value came out at 7.39%. The result for `CCCS(=O)(=O)N1CCCC(C(=O)NCCCN(Cc2ccccc2)C(C)C)C1` (stereo not drawn) reads 6.94%; that for `COC(=O)c1cc(C(=O)N2CCN(C(=O)c3ccco3)CC2)cc([N+](=O)[O-])c1`, -11.5%; that for `Cc1cccc(C)c1NC(=O)C1CCN(C(=O)c2cccs2)CC1`, 13.7%. Next, `CC(C)NC(=O)N1CCC(c2nc3ccccc3s2)CC1`: 11%. With `CC1CCN(c2ccc(S(=O)(=O)N3CCC(C)CC3)cc2N)CC1`, the “hERG current change (%, negative = inhibition) at 1uM” value worked out at 11.1%. The result for `COc1ccc(CNC(=O)COC(=O)CO/N=C(\C)c2ccc3c(c2)OCO3)cc1` reads 12%; that for `COc1cccc(-c2csc(N3CCN(C(=S)Nc4cccc(C)c4)CC3)n2)c1`, 9.44%; that for `Cc1ccc(-n2nc3c(=O)n(CC(=O)NC4CCCCCC4)nc(C)c3c2C)cc1`, 17%.

In the case of `CC(C)(C)n1ncc2c(=O)n(CC(=O)N3CCc4ccccc43)cnc21`, the “hERG current change (%, negative = inhibition) at 1uM” value is listed as -2.03%. The result for `O=C(O)c1ccccc1S(=O)(=O)NCC(O)COc1ccc(Br)cc1` (stereo not drawn) reads 6.47%. Consider `Cc1ccc(CNC(=O)c2cn(C3CCCCC3)c(=O)c3c2c2ccccc2n3C)o1`, for which the “hERG current change (%, negative = inhibition) at 1uM” value amounted to 5.04%. As to `COC(=O)/C=c1/s/c(=C(\C#N)C(=O)NCc2ccco2)n(-c2ccc(C)cc2)c1=O`, the “hERG current change (%, negative = inhibition) at 1uM” value is listed as 11%. Next, `Br.O=S(=O)(c1ccc(-c2csc(Nc3ccc(Br)cc3)n2)cc1)N1CCCC1`: 1.99%. Next, `O=C(Cc1cccs1)N/N=C/c1ccccc1`: 7.63%; `Cc1ccccc1NC(=S)NCCO`: 16.9%.

Regarding `N#Cc1c(NC(=O)C2CC2)sc2c1CCCCC2`, the “hERG current change (%, negative = inhibition) at 1uM” value is recorded as -5%. `O=C(NCc1ccccc1F)C12CC3CC(CC(C3)C1)C2`: the “hERG current change (%, negative = inhibition) at 1uM” value is listed as 5.4%. Next, `Cc1ccc(OC(C)C(=O)Nc2ccccc2C(=O)N2CCOCC2)cc1` (stereo not drawn): 11.8%; `CCCN1C2CCCC1CC(NC(=O)NC1CCCCC1)C2` (stereo not drawn): 1.63%.

With `CCN(Cc1ccncc1)C(=O)c1ccccc1NS(=O)(=O)c1ccc(Br)cc1`, the “hERG current change (%, negative = inhibition) at 1uM” value was found to be 10.2%. For `COc1ccccc1C1CCN(Cc2ccc(Cl)c(Cl)c2)CC1`, the “hERG current change (%, negative = inhibition) at 1uM” value is given as 10.4%.

For the compound `CCN1CCN(C(=O)CCc2nnc(CCCCc3ccccc3)o2)[C@@H](C)C1=O`, the “hERG current change (%, negative = inhibition) at 1uM” value came out at 12.1%. Next, `O=C(COC(=O)c1c(Cl)cccc1Cl)NCC1CCCO1` (stereo not drawn): 2.23%; `NC(=O)Cn1cc(C(=O)c2ccccc2F)c2ccccc21`: 16.7%. As to `Cc1ccc2nc(N(CCN(C)C)C(=O)/C=C/c3cccs3)sc2c1.Cl`, the “hERG current change (%, negative = inhibition) at 1uM” value came out at 8.73%. For the compound `Cc1ccc(NC(=O)N2CCCC2)cc1Cl`, the “hERG current change (%, negative = inhibition) at 1uM” value amounted to 10.3%. In the case of `CC(C)C1C(C#N)=C(N)Oc2n[nH]c(-c3ccc4ccccc4c3)c21` (stereo not drawn), the “hERG current change (%, negative = inhibition) at 1uM” value is reported as 17.8%. Consider `c1ccc(-c2nnc(OCC3CCCO3)c3ccccc23)cc1` (stereo not drawn), for which the “hERG current change (%, negative = inhibition) at 1uM” value was found to be 17.4%. Take `CCn1c(CSCc2ccc(C)cc2)nnc1SCC(=O)NCc1ccccc1`: the “hERG current change (%, negative = inhibition) at 1uM” value is recorded as 0.83%. Regarding `O=C(NCC(=O)N1CCN(Cc2ccccc2)CC1)c1ccc(Cl)cc1`, the “hERG current change (%, negative = inhibition) at 1uM” value is given as -4.72%. On to `CCCCOc1ccccc1C(=O)N(Cc1ccc(C)o1)C1CCS(=O)(=O)C1` (stereo not drawn), for which the “hERG current change (%, negative = inhibition) at 1uM” value worked out at 3.01%. Regarding `CSCCC(NC(=O)c1ccc(Cl)cc1Cl)C(=O)N1CC(C)OC(C)C1` (stereo not drawn), the “hERG current change (%, negative = inhibition) at 1uM” value is 1.18%. As to `Cc1ccc(Cn2ccc(C3CC3)n2)cc1`, the “hERG current change (%, negative = inhibition) at 1uM” value is 5.36%.

For the compound `COc1ccc(-n2cccc2/C=C2\C(=N)N3N=C(c4ccco4)SC3=NC2=O)cc1`, the “hERG current change (%, negative = inhibition) at 1uM” value stood at 9.87%.

On to `N#CCSc1nnc2c(Cl)cc(Cl)cn12`, for which the “hERG current change (%, negative = inhibition) at 1uM” value is given as 15.3%. Regarding `O=C(C[n+]1ccc(-c2nnc3n2CCC3)cc1)c1ccc(Cl)cc1.[Br-]`, the “hERG current change (%, negative = inhibition) at 1uM” value came to 4.99%.

Regarding `CCCNC(=O)C/C(C)=N/NC(=O)COc1ccc(C)cc1Br`, the “hERG current change (%, negative = inhibition) at 1uM” value was -8.77%.

Regarding `CCn1ncc(Br)c1C(=O)Nc1ncc(C)s1`, the “hERG current change (%, negative = inhibition) at 1uM” value is 7.58%. For the compound `CC(C)(C)OC(=O)N1CCC2(CC1)Oc1ccc(F)cc1C(=O)C21CC(c2ccccc2)=NO1` (stereo not drawn), the “hERG current change (%, negative = inhibition) at 1uM” value turned out to be 10.9%.

In the case of `COc1ccc(-c2csc(-c3ccccc3)n2)c(OC)c1`, the “hERG current change (%, negative = inhibition) at 1uM” value is 9.73%.
